PubChem BioAssay AID1508624 (National Center for Advancing Translational Sciences (NCATS), 2021)
Out of some 48,000 compounds screened, about 120 (0.25%) were called active. Another 4% or so got no clear call; they are omitted. The call rests on the fitted dose curve; in most records, active means well fitted activation curve with a large enough effect; inconclusive means small, poorly fitted or top-dose-only effect, or another doubt; inactive means no such curve, though single readings can be large or run the other way. Some of the results follow.

Assay: Primary qHTS for Identification of Small Molecule Activators of Huntingtin-Antisense Promoter Activity; further: nearly all actives have a fitted effect of over 55% in size
Details: HEK293 HTT-AS promoter firefly luciferase reporter (activity 0% = vehicle and -100% = no light), 24 h; series mostly up to 57.5 µM; activity change, positive = activation: at the top concentration
Description: Assay Provider: Russell L. Margolis M.D.
Department Neurology, Johns Hopkins University School of Medicine, Baltimore, MD
Huntington's Disease (HD) is a neurodegenerative disorder caused by a CAG repeat expansion in exon 1 of huntingtin (HTT). While there are currently no disease-modifying treatments for HD, recent efforts have focused on development of nucleotide-based therapeutics to lower HTT expression. As an alternative to siRNA or oligonucleotide methods, we hypothesized that suppression of HTT expression might be accomplished by small molecules that either (1) directly decrease HTT expression by suppressing HTT promoter activity or (2) indirectly decrease HTT expression by increasing the promoter activity of HTT-AS, the gene antisense to HTT that appears to inhibit expression of HTT.
We developed and employed a high throughput screen for modifiers of HTT and HTT-AS promoter activity using luminescent reporter HEK293 cells; of the 52,041 compounds tested, we identified 898 replicable hits. We used a rigorous stepwise approach to assess compound toxicity and the capacity of the compounds to specifically lower huntingtin protein in 5 different cell lines, including HEK293 cells, HD lymphoblastoid cells, mouse primary neurons, HD iPSCs differentiated into cortical-like neurons, and HD hESCs. We found no compounds which were able to lower huntingtin without lowering cell viability in all assays, though the potential efficacy of a few compounds at non-toxic doses could not be excluded.
SEQUENCE No. (1, 2, 3, etc.); […] (e.g., Cells, Incubation, Reagent, etc.); VALUE and DESCRIPTION.
1; Reagent; 4 uL; 2,500 Hek293 luciferase reporter cells per wells
3; Compound; 23 nL; Control inhibitor / compound library
5; Reagent; 2.5 uL; Firefly Luc reagent; Dual-Glo Luciferase Reporter Assay System (Promega)
6; Time; 10 min; room temperature incubation
7; Detection; Luminescence; FLuc
NOTES (numbers refer to sequence above)
1; High-throughput screening, measuring luminescence from a Hek293 luciferase reporter, was performed in 1,536 well white-walled tissue-culture treated plates. 2,500 cells were plated in 4 µL of Opti-MEM per well using a Multidrop Combi Reagent Dispenser (ThermoFisher).
2; Assay plates were cultured for 24 hours.
3; Control inhibitor (PTC124; final concentration of 50 uM) and compound library (at final concentrations of 460 nM - 57.5 uM) were added to the assay plate using the Kalypsis Pintool Robotic System equipped with 1536 pinheads.
4; Cells were then incubated for 24 hours at 37 degrees C prior to luminescence measurements.
5; In all cases, luminescence was measured using the Dual-Glo Luciferase Reporter Assay System (Promega) following the manufacturer's instructions.
6; Room temperature incubation.
7; Luminescence signal was obtained using the PerkinElmer ViewLux plate reader. Results were normalized to vehicle control (0% activity) and zero RLU (-100% activity).
With `CCc1ccc(C(c2ccccc2)c2c[nH]c3ccc(C)cc23)s1` (centres undefined) the “activity change, positive = activation” value was inactive: 12.5%.
For `CCc1cccc(-n2nnc(-c3nsc(NC(=O)c4ccc(C)cc4)n3)c2C)c1`, the “activity change, positive = activation” value was inactive: -18.2%.
With `CC(C(=O)O)c1ccc(CC2CCCC2=O)cc1` (centres undefined) the “activity change, positive = activation” value was inactive: -5.81%.
In the case of `Cc1sc2ncn(CC(=O)N3CCN(c4ccccc4)CC3)c(=O)c2c1S(=O)(=O)N1CCN(c2ncccn2)CC1`, the “activity change, positive = activation” value is reported as inactive: -20.7%.
For `COc1ccc(Cn2ccnc2SCC(=O)NC2CCCC2)cc1`, the “activity change, positive = activation” value was inactive: -17.4%.
For `CC(CCc1ccccc1)NC(=O)Cn1c(=O)nc(-c2ccccc2F)c2cc(Cl)ccc21` (centres undefined), the “activity change, positive = activation” value was inactive: -8.66%.
In the case of `Cc1oc(-c2ccccc2F)nc1CSCC(=O)NCc1ccccc1`, the “activity change, positive = activation” value is reported as inactive: -14.2%.
In the case of `Cc1cccc(C)c1NC(=O)CSc1ncc2c(n1)-c1ccc(Cl)cc1N(Cc1ccccc1)S2(=O)=O`, the “activity change, positive = activation” value is reported as inactive: -24%.
For `COc1ccc2c(c1)CC(C(=O)Nc1cccc(C)c1C)CO2` (centres undefined), the “activity change, positive = activation” value was inactive: -16.6%.
With `CC(C)c1ccc(NC(=O)C2CCCN(S(=O)(=O)c3cccc4nsnc34)C2)cc1` (centres undefined) the “activity change, positive = activation” value was inactive: -25.3%.
In the case of `CC(C)C[C@@H]1[C@H](c2ccccc2)OC(=O)N1CCCN1CCCCCC1`, the “activity change, positive = activation” value is reported as inactive: -3.77%.
With `COC(=O)c1ccc(NS(=O)(=O)c2c(C)nc3sccn3c2=O)cc1` the “activity change, positive = activation” value was inactive: -21.3%.
With `C/C(=C(\CCO)SS/C(CCO)=C(\C)N(C=O)Cc1cnc(C)nc1N)N(C=O)Cc1cnc(C)nc1N` the “activity change, positive = activation” value was inactive: -4.72%.
In the case of `COc1cccc(-n2ccnc2SCC(=O)Nc2ccc(Cl)c(Cl)c2)c1`, the “activity change, positive = activation” value is reported as inactive: -26%.
In the case of `CSc1ccc(CCNC(=O)c2ccc3c(c2)nc2n3CCCCC2)cc1`, the “activity change, positive = activation” value is reported as inactive: -51.8%.
With `CCOC(=O)Cn1c(=O)n(C2CCCCC2)c2nc(-c3ccc(OCC)cc3)nc(C(N)=O)c21` the “activity change, positive = activation” value was inactive: -21.6%.
With `COc1ccc(C2CC(=O)c3cnc4c(-c5ccccc5)c(C)nn4c3C2)cc1OC` (centres undefined) the “activity change, positive = activation” value was inactive: -27.1%.
For `O=C(CSc1nccn1-c1ccc(Cl)cc1)Nc1cccc2ccccc12`, the “activity change, positive = activation” value was inactive: -12.1%.
With `Cc1ccc(CSc2ncc(Cl)c(C(=O)Nc3nc4ccc(C)cc4s3)n2)cc1` the “activity change, positive = activation” value was inactive: 10.6%.
For `Oc1c(C(c2ccccc2)N2CCN(c3cccc(Cl)c3)CC2)sc2nc(-c3ccco3)nn12` (centres undefined), the “activity change, positive = activation” value was inactive: -10.3%.
In the case of `O=c1c(=O)n(-c2ccccc2)ccn1Cc1cccc(C(F)(F)F)c1`, the “activity change, positive = activation” value is reported as inactive: -12.1%.
In the case of `Cc1ccc(NC(=O)c2cc3nc(-c4ccc5c(c4)OCO5)cc(C(F)(F)F)n3n2)cc1Cl`, the “activity change, positive = activation” value is reported as inactive: 4.53%.
In the case of `O=C(NCc1ccc(F)cc1)c1ccc(CS(=O)Cc2ccc(Cl)cc2)o1` (centres undefined), the “activity change, positive = activation” value is reported as inactive: -33.5%.
With `COc1ccccc1CNS(=O)(=O)c1cc(Br)cc2c1N(C(C)=O)C(C)C2` (centres undefined) the “activity change, positive = activation” value was inactive: -18.9%.
In the case of `O=C1COc2ccc(-c3cc(-c4ccc(F)cc4)c4c(n3)-c3cc(Cl)ccc3OC4)cc2N1`, the “activity change, positive = activation” value is reported as inactive: 1.29%.
In the case of `Cc1c(C(=O)Nc2ccccc2Cl)sc2ncnc(N(C)C3CCCCC3)c12`, the “activity change, positive = activation” value is reported as inactive: -13%.
In the case of `CCc1ccc(CNC(=O)C2CCCN(c3nnc(C)c4c(C)n(-c5ccc(OC)cc5)nc34)C2)cc1` (centres undefined), the “activity change, positive = activation” value is reported as inactive: -18.3%.
With `COc1cc(Cl)c(NC(=O)c2cc(CN3CCCC3)on2)c(OC)c1` the “activity change, positive = activation” value was inactive: -8.35%.
For `Cc1ccc(N2CC(c3nnc(Cc4ccc(F)cc4)o3)CC2=O)cc1` (centres undefined), the “activity change, positive = activation” value was inactive: -12%.
